From the supplement of paper PMC12217912
This is one part of the list. Sequences were assembled here from the parent chain. Values near 0.05 are background.

B1: TEV protease; numbered along this chain (parent)
chain: MGESLFKGPRDYNPISSSICHLTNESDGHTTSLYGIGFGPFIITNKHLFRRNNGTLVVQSLHGVFKVKDTTTLQQHLVDGRDMIIIRMPKDFPPFPQKLKFREPQREERICLVTTNFQTKSMSSMVSDTSCTFPSGDGIFWKHWIQTKDGQCGSPLVSTRDGFIVGIHSASNFTNTNNYFTSVPKNFMELLTNQEAQQWVSGWRLNADSVLWGGHKVFMVKPEEPFQPVKEATQL

Variants of: B1
Experiment: raw area under fraction-flipped curve 0-4 h after induction (AUC4h, not background-subtracted), DNA-recorder readout of cleavage of the substrate (dimensionless); higher = more cleavage of the substrate by the protease variant
Conditions: temperature: 34 °C; time window: 0-4 h after rhamnose induction
Description: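 In vivo DNA recorder in E. coli TOP10(DE3) ΔrhaA at 34 °C. Each TEVp single-site mutant (parent TEVp 0) is paired with a single-site variant of the 7-mer TEVs (canonical ENLYFQ|S). The substrate sits between flexible linkers in a Bxb1-sfGFP-TEVs-SsrA fusion, so cleavage stabilises Bxb1 and speeds flipping of a recombination array, read by NGS. The value is the raw area under the fraction-flipped curve over 0-4 h after rhamnose induction (AUC4h), with ≥20 reads per time point. It is not background-subtracted; inactive controls average about 0.047.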
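Note: Bxb1 expression induced with 0.2% (w/v) L-rhamnose at OD600 near 0.5, cultures sampled hourly, flipped fraction per protease–substrate barcode pair counted by paired-end Illumina sequencing.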

Row | Variant | area with substrate ENAYFQS | area with substrate ENCYFQS | area with substrate ENEYFQS | area with substrate ENFYFQS | area with substrate ENGYFQS | area with substrate ENHYFQS | area with substrate ENIYFQS | area with substrate ENKYFQS | area with substrate ENMYFQS | area with substrate ENPYFQS | area with substrate ENQYFQS | area with substrate ENSYFQS | area with substrate ENVYFQS | area with substrate ENWYFQS | area with substrate ENDYFQS | area with substrate ENNYFQS | area with substrate ENRYFQS | area with substrate ENTYFQS | area with substrate ENYYFQS
1 | MGESLFKGPRDYNPISSSICHLTNESDGHTTSLYGIGFGPFIITNKHLFRRNNGTLVVQSLHGVFKVKDTTTLQQHLVDGRDMIIIRMPKDFPPFPQKLKFREPQREERICLVTTNFQTKSMSSMVSDTSCTFPSGDGIFWKHWIQTKDGQCGSPLVSTRDGFIVGIHSASNFTNTNNYFTSVPKNFMELLTNQEAQQWVSGWRLNVDSVLWGGHKVFMVKPEEPFQPVKEATQL [A207V] | 0.0565 | 0.0683 | 0.0416 | 0.0678 | 0.0544 | 0.0599 | 0.111 | 0.0636 | 0.0709 | 0.0582 | 0.0591 | 0.061 | 0.0602 | 0.0535 | – | – | – | – | –
2 | MGESLFKGPRDYNPISSSICHLTNESDGHTTSLYGIGFGPVIITNKHLFRRNNGTLVVQSLHGVFKVKDTTTLQQHLVDGRDMIIIRMPKDFPPFPQKLKFREPQREERICLVTTNFQTKSMSSMVSDTSCTFPSGDGIFWKHWIQTKDGQCGSPLVSTRDGFIVGIHSASNFTNTNNYFTSVPKNFMELLTNQEAQQWVSGWRLNADSVLWGGHKVFMVKPEEPFQPVKEATQL [F41V] | 0.0749 | 0.0633 | 0.0624 | 0.0548 | 0.0598 | 0.0573 | 0.0913 | 0.0583 | 0.0745 | 0.0536 | 0.0566 | 0.0598 | 0.0682 | – | 0.0488 | 0.0463 | 0.0632 | 0.0575 | 0.047
3 | MGESLFKGPRDYNPISSSICHLTNESDGHTTSLYGIGFGPFIITAKHLFRRNNGTLVVQSLHGVFKVKDTTTLQQHLVDGRDMIIIRMPKDFPPFPQKLKFREPQREERICLVTTNFQTKSMSSMVSDTSCTFPSGDGIFWKHWIQTKDGQCGSPLVSTRDGFIVGIHSASNFTNTNNYFTSVPKNFMELLTNQEAQQWVSGWRLNADSVLWGGHKVFMVKPEEPFQPVKEATQL [N45A] | 0.0562 | 0.0372 | 0.06 | – | 0.0661 | 0.0619 | – | 0.0634 | – | 0.0559 | 0.0507 | 0.0577 | 0.0513 | 0.0253 | 0.0697 | 0.06 | 0.0506 | 0.0573 | 0.0439
4 | MGESLFKGPRDYNPISSSICHLTNESDGHTTSLYGIGFGPFIITNKHLFRRNNGTLVVQSLHGVFKVKDTTTLQQHLVDGRDMIIIRIPKDFPPFPQKLKFREPQREERICLVTTNFQTKSMSSMVSDTSCTFPSGDGIFWKHWIQTKDGQCGSPLVSTRDGFIVGIHSASNFTNTNNYFTSVPKNFMELLTNQEAQQWVSGWRLNADSVLWGGHKVFMVKPEEPFQPVKEATQL [M88I] | 0.0822 | 0.0619 | – | 0.0593 | 0.0767 | – | 0.0916 | – | – | – | 0.0557 | 0.0662 | – | 0.0471 | 0.0571 | – | – | 0.0436 | 0.0583
5 | MGESLFKGPRDYNPISSSICHLTNESDGHTTSLYGIGFGPFIITNKHLFRRNNGTLVVQSLHGVFKVKDTTTLQQHLVDGRDMIIIRMPKDFPPFPQKLKFREPQREERICLVTTNFQTKSMSSMVSDTSCTFPSGDGIFWKHWIQTKDGQCGSPLVSTRDGFIFGIHSASNFTNTNNYFTSVPKNFMELLTNQEAQQWVSGWRLNADSVLWGGHKVFMVKPEEPFQPVKEATQL [V165F] | 0.0649 | 0.171 | – | – | 0.0531 | 0.0557 | – | 0.0719 | – | – | 0.056 | – | – | – | 0.0529 | – | 0.0481 | – | –
6 | MGESLFKGPRDYNPISSSICHLTNESDGHTTSLYGIGFGPFIITNKHLFRRNNGTLVVQSLHGVFKVKDTTTLQQHLVDGRDMIIIRMPKDFPPFPQKLKFREPQREERICLVTTNFQTKSMSSMVSDTSCTFPSGDGIFWKHWIQTKDGQCGSPLVSTRDGFIVGIHSASNFTNTNNYFTSVPKNFMELLTNQEAQQWVSGWRLNADSVLWGGHKVFMVKPEEPFQPVWEATQL [K230W] | 0.0633 | – | 0.046 | 0.0544 | 0.0701 | 0.0663 | 0.104 | 0.0664 | – | – | 0.0567 | 0.0696 | 0.075 | 0.0497 | 0.083 | 0.0561 | 0.0491 | 0.0573 | 0.0458
7 | MGESLFKGPRDYNPISSSICHLTNESDGHTTSLYGIGFGPFIITNKHLFRRNNGTLVVQSKHGVFKVKDTTTLQQHLVDGRDMIIIRMPKDFPPFPQKLKFREPQREERICLVTTNFQTKSMSSMVSDTSCTFPSGDGIFWKHWIQTKDGQCGSPLVSTRDGFIVGIHSASNFTNTNNYFTSVPKNFMELLTNQEAQQWVSGWRLNADSVLWGGHKVFMVKPEEPFQPVKEATQL [L61K] | 0.0741 | – | 0.0761 | 0.0559 | 0.0581 | – | 0.0584 | 0.0345 | – | 0.059 | – | 0.0637 | 0.111 | – | 0.0355 | 0.0661 | 0.0475 | – | 0.0573
8 | MGESLFKGPRDYNPISSSICHLTNESDGHTTSLYPIGFGPFIITNKHLFRRNNGTLVVQSLHGVFKVKDTTTLQQHLVDGRDMIIIRMPKDFPPFPQKLKFREPQREERICLVTTNFQTKSMSSMVSDTSCTFPSGDGIFWKHWIQTKDGQCGSPLVSTRDGFIVGIHSASNFTNTNNYFTSVPKNFMELLTNQEAQQWVSGWRLNADSVLWGGHKVFMVKPEEPFQPVKEATQL [G35P] | 0.0474 | 0.045 | 0.0497 | 0.0407 | – | – | – | 0.0366 | – | – | – | – | – | – | – | 0.0494 | 0.0497 | – | –
9 | MGESLFKGPRDYNPISSSICHLTNESDGHTTSLYGIGFGPFIITNKHLFRRNNGTLVVQSLHGVFKVKDTTTLQQSLVDGRDMIIIRMPKDFPPFPQKLKFREPQREERICLVTTNFQTKSMSSMVSDTSCTFPSGDGIFWKHWIQTKDGQCGSPLVSTRDGFIVGIHSASNFTNTNNYFTSVPKNFMELLTNQEAQQWVSGWRLNADSVLWGGHKVFMVKPEEPFQPVKEATQL [H76S] | 0.0618 | 0.0708 | 0.0641 | 0.0623 | 0.0585 | 0.0546 | 0.0968 | – | 0.119 | 0.0702 | 0.0578 | 0.0549 | 0.0607 | – | 0.0637 | 0.0581 | – | 0.0553 | 0.0549
